Here are results for 3 molecules from publication PMC4051706.

Results are given in words; binding and its absence hold for the method and conditions named. In cells and extracts the contact can be indirect. Some results given as binding are weak or reduced against the parent protein; the word gives no strength.

Assay [1] concerns the target T1, sorting nexin 31 (SNX31), mouse urothelium (mouse (endogenous in mouse urothelium)) (UniProt Q6P8Y7).
T1 sequence: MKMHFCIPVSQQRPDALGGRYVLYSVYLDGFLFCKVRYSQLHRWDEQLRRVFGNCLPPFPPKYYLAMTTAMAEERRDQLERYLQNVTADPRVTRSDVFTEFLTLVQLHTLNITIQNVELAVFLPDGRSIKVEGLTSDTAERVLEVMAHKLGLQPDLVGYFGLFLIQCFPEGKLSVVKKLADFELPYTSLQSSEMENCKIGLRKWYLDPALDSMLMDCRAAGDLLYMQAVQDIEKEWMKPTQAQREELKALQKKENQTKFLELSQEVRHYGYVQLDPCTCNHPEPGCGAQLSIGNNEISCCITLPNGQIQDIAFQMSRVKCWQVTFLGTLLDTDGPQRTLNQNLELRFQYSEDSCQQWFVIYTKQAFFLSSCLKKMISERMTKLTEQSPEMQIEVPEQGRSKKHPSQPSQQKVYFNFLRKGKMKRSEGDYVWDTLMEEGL
The experiment in a line: co-IP; affinity-purified anti-SNX31 antibody crosslinked to aminolink plus resin; 300 µg of total mouse urothelial proteins in RIPA buffer; quenched beads, control beads and anti-Gst beads as negative controls; 6 washes with cold lysis buffer; immunoblot. A general note: In western blotting, separated proteins are transferred to a membrane and probed.

Assay [2] has as its target T1, sorting nexin 31 (SNX31), mouse urothelium (mouse (endogenous in mouse urothelium)). Nature of the assay: proximity ligation; in situ PLA (Duolink) on paraffin sections of mouse bladder, wild type and Vps33a mutant (Buff); signals counted per umbrella cell.
Assay [3] has as its target T2, uroplakin IIIa (UPIIIa), mouse urothelium (mouse (endogenous in mouse urothelium)) (UniProt Q9JKX8).
T2 sequence: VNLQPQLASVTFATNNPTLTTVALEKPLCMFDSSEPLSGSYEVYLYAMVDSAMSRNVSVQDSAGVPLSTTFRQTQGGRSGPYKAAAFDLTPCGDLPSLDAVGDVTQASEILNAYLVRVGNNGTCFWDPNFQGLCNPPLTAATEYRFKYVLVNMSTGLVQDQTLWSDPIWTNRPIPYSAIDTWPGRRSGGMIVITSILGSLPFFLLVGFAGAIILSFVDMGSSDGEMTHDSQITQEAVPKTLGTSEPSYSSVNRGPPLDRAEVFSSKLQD
Described as above.

B1: uroplakin Ia (UPIa), mouse urothelium (protein, UniProt Q9D132 1-257)
chain: MASAATEGEKGSPVVVGLLVVGNIIILLSGLALFAETVWVTADQYRVYPLMGVSGKDDVFAGAWIAIFCGFSFFVVASFGVGAALCRRRYMILTYLLLMLIVYIFECASCITSYTHRDYMVSNPSLITKQMLTYYSADTDQGQELTRLWDRIMIEQECCGTSGPMDWVNYTSAFRAATPEVVFPWPPLCCRRTGNFIPINEDGCRVGHMDYLFTKGCFEHIGHAIDSYTWGISWFGFAILMWTLPVMLIAMYFYTTL
With B1, the binding result in assay [1] is listed as “no binding”.

B2: uroplakin IIIa (UPIIIa), mouse urothelium (protein, UniProt Q9JKX8 19-287)
chain: T2 sequence
With B2, the binding result in assay [1] and in assay [2] was “binds” in each case.

B3: uroplakin Ib (UPIb), mouse urothelium (protein, UniProt Q9Z2C6 1-260)
chain: MAKDDSTVRCFQGLLIFGHVIVGMCGIALTAECIFFVSDQHSLYPLLEATNNDDIFGAAWIGMFVGICLFCLSVLAIVGIMKSNRKILLAYFIMMFIVYGFEVASCITAATQRDFFTTNLFLKQMLMRYQNNSPPTNDDEWKNNGVTKTWDRLMLQDHCCGVNGPSDWQKYTSAFRVENNDADYPWPRQCCVMDKLKEPLNLDACKLGVPGYYHSQGCYELISGPMDRHAWGVAWFGFAILCWTFWVLLGTMFYWSRIEY
Regarding B3, the binding result in assay [1] and in assay [3] was “binds” each time.
